# Source: publication PMC6919601, “Identification of Plasmodium dipeptidyl aminopeptidase allosteric inhibitors by high throughput screening” (PLoS ONE, 2019)
# Screen size: about 110,000 compounds; about 230 (0.21%) showed an effect of 50% or more. The list shows a part of the results.
# Biological target: DPAP1 (Plasmodium falciparum, UniProt Q8IIJ9)
# Experiment: primary screen, percent inhibition; read by cleavage of a fluorogenic dipeptide substrate; higher = more effect of the substance
# Design: species or system P. falciparum D10 trophozoite lysates; single well
# 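Also: 30 min substrate incubation versus DMSO and 10 µM JCP410 controls.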
# Chain of DPAP1 (Q8IIJ9 whole entry, looked up): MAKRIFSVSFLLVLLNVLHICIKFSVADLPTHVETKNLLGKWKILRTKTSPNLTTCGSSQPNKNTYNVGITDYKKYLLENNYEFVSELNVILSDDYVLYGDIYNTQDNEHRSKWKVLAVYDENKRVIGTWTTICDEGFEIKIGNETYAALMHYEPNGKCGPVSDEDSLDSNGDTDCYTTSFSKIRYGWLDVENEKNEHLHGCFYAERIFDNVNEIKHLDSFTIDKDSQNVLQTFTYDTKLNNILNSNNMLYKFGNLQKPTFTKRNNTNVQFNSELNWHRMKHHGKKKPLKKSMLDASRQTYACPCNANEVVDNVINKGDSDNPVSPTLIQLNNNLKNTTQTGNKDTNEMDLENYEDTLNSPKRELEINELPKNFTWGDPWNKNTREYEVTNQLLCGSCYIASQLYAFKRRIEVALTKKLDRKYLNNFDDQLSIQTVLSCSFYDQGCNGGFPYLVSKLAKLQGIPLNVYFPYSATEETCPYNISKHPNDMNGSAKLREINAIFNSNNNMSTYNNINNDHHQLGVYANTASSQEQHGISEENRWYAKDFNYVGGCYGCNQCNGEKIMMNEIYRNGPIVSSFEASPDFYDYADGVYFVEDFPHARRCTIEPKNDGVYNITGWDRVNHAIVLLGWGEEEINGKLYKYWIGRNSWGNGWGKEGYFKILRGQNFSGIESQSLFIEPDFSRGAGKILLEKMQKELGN
row,Compound,% Inhibition @ 10 uM
1,Cc1ccc(N2C(=O)NC(=O)/C(=C/N3CCN(C)CC3)C2=O)cc1C,-3.83%
2,O=[N+]([O-])c1ccccc1S(=O)(=O)N1CCNCC1,-8.3%
3,CN1C(=O)[C@@H]2[C@H](C1=O)[C@H](C(=O)c1ccccc1)N1C=Cc3ccccc3[C@@H]21,-3.45%
4,N#CCNC(=O)[C@H](Cn1ccnc1)NC(=O)OCc1ccccc1,-8.81%
5,C#CCSc1nc2c(c(=O)n1CC=C)C1(CCCC1)Cc1ccccc1-2,-2.2%
6,CC(=O)c1ccc(NC(=O)c2ccc(S(=O)(=O)N3CCCCCC3)cc2)cc1,-9.2%
7,Nc1[nH]nc(Cc2ccccc2)c1-c1ccccc1,-1.99%
8,O=C(N/C(=C\c1ccco1)C(=O)N1CCCCC1)c1cccc(Br)c1,0.746%
9,CCOc1ccc(CCNc2ncnc3onc(-c4ccc(F)cc4)c23)cc1,6.18%
10,O=C1c2cccc3c(Br)ccc(c23)C(=O)N1c1nc[nH]n1,2.4%
11,CCN1CCC(NCc2ccc(F)cc2)CC1,-0.0908%
12,CCCNC(=O)C(CC)n1ncn2c(cc3occc32)c1=O (stereo not drawn),1.38%
13,COc1ccc(C2Sc3nncn3N2Cc2ccc(C(=O)c3ccccc3)cc2)cc1 (stereo not drawn),11.2%
14,CC(C)NC(=O)C1(c2ccccc2)CCCC1,2.38%
15,Cc1cc(NC(=O)CNC(C)(C)C)c2ccccc2n1,0.266%
16,CC1(C)CC(=O)C2=C(C1)OC1=C(C(=O)CC(C)(C)C1)C2c1cc(Cl)ccc1O,6.22%
17,CCNC(=O)/C(=C\c1ccccc1)NC(=O)c1ccccc1OC,-0.864%
18,COc1ccc(S(=O)(=O)Nc2cc(C)cc(C)c2)cc1,0.135%
19,N#CC1(c2ccc(OCc3ccccc3)cc2)CCC(=O)N1Cc1ccccc1 (stereo not drawn),4.06%
20,C[C@@H]1CN(C2=CC(=O)OC23CCCCC3)C[C@H](C)O1,1.74%
21,Cc1nc(Nc2c3ccccc3nc3ccccc23)sc1C,-1.69%
22,Clc1ccc(COc2cccc(CNCc3cccnc3)c2)cc1,-1.43%
23,CCN1CCN(C(=O)c2cnn(-c3ccc(F)cc3)c2C2CCN(C(=O)OC(C)(C)C)CC2)CC1,1.06%
24,COc1cccc(NC(=O)COc2cc(C)ccc2C(C)C)c1,0.683%
25,Cc1cc(NS(=O)(=O)c2ccc(NC(N)=S)cc2)no1,1.83%

row,Compound,% Inhibition @ 10 uM
1,CCOC(=O)N1CCC(NC(=O)c2cc3c(O)nc4ccccc4c3s2)CC1,-2.29%
2,COc1ccccc1S(=O)(=O)Cc1ccc(C(=O)NCCN2CCCCCC2)o1,-4.96%
3,Nc1ccc(C(=O)NCCc2ccccc2)cc1,3.79%
4,CCCNC(=O)c1nc(C)c(C)nc1C(=O)Nc1cccc(F)c1,0.147%
5,CCOC(=O)C1=C(C)N(Cc2ccccc2)C(=O)NC1c1ccccc1F (stereo not drawn),-0.053%
6,C=CCn1c(=N)c(C#N)cc2c(=O)n3cc(C)ccc3nc21,3.6%
7,CCOc1ccc(CCNCc2c(C(=O)O)c(C)n(Cc3ccc(F)cc3Cl)c2C)cc1,-9.31%
8,COc1cccc(-c2cn3c(n2)sc2cc(C(=O)O)ccc23)c1,-1.6%
9,CC(C)C(=O)Nc1c2c(nn1-c1cccc(Cl)c1)CS(=O)(=O)C2,5.63%
10,Cc1ccc(S(=O)(=O)N(CCc2ccccc2)CC(=O)NC2CC2)cc1,-5.01%
11,O=C(Cc1c(O)nc2ccccc2c1O)NCCO,-1.69%
12,CC1CCCN(c2nc3c(-c4cccc(C(F)(F)F)c4)nnn3c3ccccc23)C1 (stereo not drawn),-3.14%
13,CCc1[nH]nc2c1C(c1ccc(SC)cc1)C(C#N)=C(N)O2 (stereo not drawn),-1.07%
14,CCN1CCC(N(CCc2ccccc2)Cc2ccccc2)CC1,4.74%
15,Brc1ccc(CN2CCN(C/C=C/c3ccccc3)CC2)cc1,-3.65%
16,CCOC(=O)N1CCC(N2C(=O)c3ccc(C(=O)NCc4cccc(Cl)c4)cc3C2=O)CC1,0.708%
17,NS(=O)(=O)c1ccc(CC/N=C2\C=C(O)OC23CCCCC3)cc1,-5.38%
18,CCC(O)(C#CCN1CCOCC1)CC,-2.32%
19,O=C(c1ccc(Br)o1)n1cnc2ccccc21,-6.6%
20,COc1ccc(Cn2c(C(=O)O)c(CNCCc3ccc(Cl)cc3)c3ccc(C)cc32)cc1,-8.45%
21,CCOC(=O)c1[nH]c2ccccc2c1NC(=O)C(C)C,-4.23%
22,Cc1oc(C)c2c(=O)cc(-c3ccc4c(c3)OCO4)cc(OC(=O)c3ccc(F)cc3)c12,0.558%
23,COc1ccc(-c2cc(C(=O)NC3CC3)c3cc(C(C)C)ccc3n2)cc1,4.36%
24,CCS(=O)(=O)N1CCC(C(=O)NCCN2CCOCC2)CC1,3.79%
25,Cc1nc2nc(C)c(CCC(=O)NCCCOC(C)C)c(C)n2n1,1.26%

row,Compound,% Inhibition @ 10 uM
1,CCCCN(CC)CCNC(=O)C1c2ccccc2C(=O)N(CC(C)C)C1c1cccs1 (stereo not drawn),2.47%
2,COc1ccc(C2=N/C(=C\c3cc(OC)ccc3OC)C(=O)O2)cc1,-3.62%
3,CN(C)C(=O)CSc1nc2ccccc2c(=O)n1-c1ccccc1,-0.736%
4,CCCNC(=O)C1CCN(c2nn3c(=O)cc(C)nc3s2)CC1,3%
5,Cc1ccc(C(=O)c2ccc(Br)s2)cc1,-5.53%
6,COC(=O)c1c(NC(=O)c2ccc3c(c2)CC(c2ccccc2)OC3=O)sc(C)c1C (stereo not drawn),3.81%
7,COCCCNC(=O)c1ccc(CSc2nc3ccncc3n2Cc2ccccc2C)cc1,-0.23%
8,Cc1c(C(=O)Nc2cccc(F)c2)cnn1-c1ccccc1,0.189%
9,CCn1cc(/C=C(/C#N)C(=O)Nc2ccc(OC)cc2)c2ccccc21,0.392%
10,O=C(O)c1ccc(CNC(=O)c2ccc(Br)cc2)cc1,-1.99%
11,Cc1ccc(-c2nc(C(=O)NC3CCCC3)c3n2CCCCC3)cc1,-1.4%
12,Cc1cc2c(cc1C)NC(CC(=O)Nc1ccccc1Cl)C(=O)N2 (stereo not drawn),14.1%
13,CCN(CC)CCCNC(=O)C(C)n1nc(C)c2c(C)n(-c3ccccc3)nc2c1=O (stereo not drawn),-1.03%
14,CCOC(=O)c1cnc2c(ccc3ccccc32)c1NCc1ccco1,-1.1%
15,COc1ccc(Br)cc1CNC(=O)C(C)n1sc2ccccc2c1=O (stereo not drawn),-2.29%
16,Cc1cccc(NC(=O)CN2C(=O)C3C4CCC(C4)C3C2=O)c1 (stereo not drawn),5.51%
17,COc1ccc(-c2noc(-c3nnn(-c4ccccc4)c3N)n2)cc1,-7.62%
18,O=C(NCc1ccccc1)C1CC(=O)N(C2CCCCCC2)C1 (stereo not drawn),2.05%
19,O=C(Cn1ncc2c3ccccc3nc-2c1O)NCC1CCCO1 (stereo not drawn),-1.71%
20,CNC(=O)C1CC(=O)N(CCc2ccc(OC)cc2)/C(=N/c2cccc(Cl)c2)S1 (stereo not drawn),3.86%
21,CC(C)CCn1c(CN2CCN(C)CC2)nc2c1c(=O)n(C)c(=O)n2C,-1.43%
22,NC(=O)c1cc(S(=O)(=O)N(CCCN2CCOCC2)Cc2ccco2)cs1,-6.47%
23,Cn1nc(C(=O)N2CCN(c3ccccn3)CC2)c2c1-c1ccccc1S(=O)(=O)C2,3.44%
24,COCCN1CNc2c(c(=O)n(C)c(=O)n2C)C1,-1.72%
25,O=C1C(Cl)=C(Oc2ccccc2)C(=O)N1c1ccccc1,4.28%

row,Compound,% Inhibition @ 10 uM
1,CC1=C(C(=O)Nc2ccc(C)cn2)C(c2cccc(Cl)c2)C2=C(O)CC(C)(C)CC2=N1 (stereo not drawn),-3.9%
2,c1cnc2nc(-c3ccsc3)c(NC3CCCCC3)n2c1,-2.16%
3,COCCN1C(=O)c2ccccc2C(C(=O)NCc2ccco2)C1c1ccc(F)cc1 (stereo not drawn),3.61%
4,Cc1ccc(C2=NS(=O)(=O)N(C)C(C(=O)NCCc3ccccc3)=C2)cc1,-4.68%
5,COc1ccc(CN(C(=O)c2ccc(OCC(C)C)cc2)C2CCS(=O)(=O)C2)cc1OC (stereo not drawn),-3.13%
6,CC1CCCCC1NC(=O)C(Cc1ccccc1)NS(=O)(=O)c1cccs1 (stereo not drawn),-4.16%
7,CCC(C(=O)NC1CCCCC1C)n1nc(C)c2sc3ccccc3c2c1=O (stereo not drawn),-1.97%
8,COc1cccc(C2c3[nH]c4ccccc4c3CC3C(=O)N(C)C(=S)N32)c1 (stereo not drawn),6.43%
9,Cc1ccccc1NC(=O)COc1ccccc1,4.75%
10,O=C1/C(=C/c2ccc(Br)cc2)Sc2ccccc21,2.45%
11,O=C(CSc1nc2ccccc2o1)Nc1cc(Cl)cc(Cl)c1,1.67%
12,CCCS(=O)(=O)c1ncc(Cl)c(C(=O)N(Cc2ccc(C)cc2)C2CCS(=O)(=O)C2)n1 (stereo not drawn),-4.64%
13,CCOc1ccccc1NC(=O)c1cccs1,0.526%
14,Cc1ccc(COc2ccccc2C2C3=C(CCCC3=O)N(CC(=O)O)C3=C2C(=O)CCC3)cc1,-1.55%
15,COc1ccc(CCNS(=O)(=O)c2ccc(-c3cc(C)no3)cc2)cc1OC,3.14%
16,O=C(Nc1ccc(F)cc1F)c1cccc(Cl)c1,-3.26%
17,CC(NC(=O)c1ccc(-c2nn(C)c(=O)c3ccccc23)cc1)c1ccccc1 (stereo not drawn),-5.1%
18,CCc1ccc(C2CC(c3cc(OC)c(OC)c(OC)c3)n3ncnc3N2)cc1 (stereo not drawn),1.73%
19,O=C(NCCCc1ccccc1)[C@@H](c1ccccc1)N1Cc2ccccc2C1=O,1.26%
20,CC1=C(C(=O)OCC(C)C)C(c2ccccc2)NC(=O)N1 (stereo not drawn),3.18%
21,CCC1NC2(C(=O)N(Cc3ccccc3F)c3ccccc32)C2C(=O)N(Cc3ccccc3)C(=O)C12 (stereo not drawn),-3.65%
22,CCC(=O)Nc1nnc(S(=O)(=O)N(C)Cc2ccc(F)cc2)s1,-4.94%
23,Cc1cc(O)c(C2=NCCSC(c3ccsc3)C2)c(=O)o1 (stereo not drawn),5.69%
24,CC(=O)Nc1ccc(NC(=O)c2ccc(Cl)cc2)cc1,3.1%
